Source: patent publication US20240279281A1, “Peptide Inhibitors of Interleukin-23 Receptor” (Janssen Pharmaceutica NV, priority 2023, published 2024)
For at least one compound, name, drawing or mass did not settle the structure. Starred links: 1 amine or outer side, 2 acyl side, 3 side chain; linkers in the order of their positions; H or OH if unused. Positions of bridges follow the written chain, without caps; N, C: chain ends. Non-standard residues stand in square brackets, D forms with d. Residues, ends and D or L forms follow the SMILES beside them. Groups on a side chain read outwards from the residue. *: point of attachment. Trp(7-(3-AcNH-Ph)) = CC(=O)Nc1cccc(-c2cccc3c(C[C@H](N)C(=O)O)c[nH]c23)c1; CH2CH2OCH2CH2OCH2CH2NMe3+ = C[N+](C)(C)CCOCCOCC*; 2Nal(6-OH) = N[C@@H](Cc1ccc2cc(O)ccc2c1)C(=O)O; Trp(7-Me) = Cc1cccc2c(C[C@H](N)C(=O)O)c[nH]c12; Abu(4-yl) = O=C([C@H](CC[*:3])N[*:1])[*:2]; dLys(Me3) = C[N+](C)(C)CCCC[C@@H](N)C(=O)O; C18 diacid = O=C(O)CCCCCCCCCCCCCCCCC(=O)*; 3Pal(5-Me) = Cc1cncc(C[C@H](N)C(=O)O)c1; γGlu = O=C(O)[C@H](CCC(=O)[*:2])N[*:1]; AEF = NCCOc1ccc(C[C@H](N)C(=O)O)cc1; X20 = C[N+](C)(C)C[C@@H](CC(=O)O)N*; 3Pal = N[C@@H](Cc1cccnc1)C(=O)O; Ethyl(2-guanidino) = N=C(N)NCC*; Pen = CC(C)(S)[C@H](N)C(=O)O; Suc = O=C(CCC(=O)[*:2])[*:1]; αMeC = C[C@](N)(CS)C(=O)O; Thp = NC1(C(=O)O)CCOCC1; X18 = C[N+](C)(C)CCCCC*; AEEA = NCCOCCOCC(=O)O; Sar = CNCC(=O)O

How the values were obtained:
[1] = biological target: T1, IL-23-stimulated phosphorylated STAT3 in peripheral blood mononuclear cells (PBMCs) (Homo sapiens, UniProt Q5VWK5); test: PBMC pSTAT3 Assay; assay type: cell-based; details: PBMCs from healthy donors, IL-23 5 ng/mL, 30 minutes
T1 sequence (Q5VWK5 24-629): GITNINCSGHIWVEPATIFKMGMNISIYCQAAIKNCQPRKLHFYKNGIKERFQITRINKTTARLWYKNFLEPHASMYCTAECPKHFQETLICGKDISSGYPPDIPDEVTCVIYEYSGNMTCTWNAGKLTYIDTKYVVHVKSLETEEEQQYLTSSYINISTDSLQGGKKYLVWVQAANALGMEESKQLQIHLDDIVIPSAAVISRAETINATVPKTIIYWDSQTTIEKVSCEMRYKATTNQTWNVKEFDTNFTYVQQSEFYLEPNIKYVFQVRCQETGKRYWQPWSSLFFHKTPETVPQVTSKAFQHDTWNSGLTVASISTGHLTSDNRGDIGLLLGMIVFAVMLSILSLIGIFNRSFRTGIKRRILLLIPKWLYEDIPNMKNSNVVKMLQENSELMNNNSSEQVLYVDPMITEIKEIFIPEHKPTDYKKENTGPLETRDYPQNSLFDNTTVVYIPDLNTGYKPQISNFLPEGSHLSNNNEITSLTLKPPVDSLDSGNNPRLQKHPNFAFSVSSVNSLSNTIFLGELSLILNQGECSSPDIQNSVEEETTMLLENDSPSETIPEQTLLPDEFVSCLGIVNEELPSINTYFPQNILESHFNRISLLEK
Experimental: Cryopreserved peripheral blood mononuclear cells (PBMCs) from healthy donors were thawed and washed twice in ImmunoCult-XF T cell expansion medium (XF-TCEM) supplemented with CTL anti-aggregate wash. The cells were counted, resuspended at 2-6×10^5 cells per mL XF-TCEM supplemented with penicillin/streptomycin and 100 ng/mL IL-1β (BioLegend, 579404), and cultured in tissue culture flasks coated with anti-CD3 (eBioscience, 16-0037-85 or BD Pharmingen, 555329) at 37° C. in 5% CO2. On day 4 of culture, PBMCs were collected, washed twice in RPMI-1640 supplemented with 0.1% BSA (RPMI-BSA), and incubated in RPMI-BSA in upright tissue culture flasks for ˜4 hours at 37° C. in 5% CO2. Following this ‘starvation,’ a total of 6×10^4 cells in 30 μL RPMI-BSA was transferred into each well of a 384-well plate pre-spotted with peptide or DMSO. The cells were incubated for 30 minutes prior to the addition of IL-23 at a final concentration of 5 ng/mL. The cells were stimulated with cytokine for 30 minutes at 37° C. in 5% CO2, transferred onto ice for 10 minutes, and lysed. Cell lysates were stored at −80° C. until phosphorylated STAT3 was measured using the phospho-STAT panel kit (Meso Scale Discovery, K15202D).

IL-23R = biological target: T2, IL-23R (Homo sapiens, UniProt Q5VWK5); test: IL23R Reporter Assay; assay type: cell-based; details: HEK293 cells containing IL-23R, IL-12Rβ1 and STAT-inducible luciferase reporter, 10 ng/mL IL-23, 5 h
T2 construct: host or cells: HEK293
T2 sequence (Q5VWK5 24-629): T1 sequence (Q5VWK5 24-629)
Experimental: Compounds were serially diluted in 100% (v/v) DMSO) and plated using an Echo acoustic dispenser (Labcyte) into 1536-well non-treated black assay plates (Corning #9146). […] After 5 h at 37° C., 5% CO2, 95% relative humidity, cells were placed at 20° C. and treated with BioGlo reagent (Promega) according to the Manufacturer's instructions. Luminescence was measured on a Pherastar FSX (BMG LabTech).

**Q.** How did the IC50 ([1]; listed as 14) turn out when `CC(=O)NCCCC[C@@H]1NC(=O)[C@H](Cc2c[nH]c3c(C)cccc23)NC(=O)[C@H]([C@@H](C)O)NC(=O)[C@H](CC(N)=O)NC(=O)[C@@H](NC(C)=O)C(C)(C)SSC(C)(C)[C@@H](C(=O)N[C@@H](Cc2ccc(OCCN)cc2)C(=O)N[C@@H](Cc2ccc3cc(O)ccc3c2)C(=O)NC2(C(=O)N[C@@H](CCCCNC(=O)COCCOCCNC(=O)COCCOCCNC(=O)CC[C@H](NC(=O)CCCCCCCCCCCCCCCCC(=O)O)C(=O)O)C(=O)N[C@@H](CC(N)=O)C(=O)N[C@@H](Cc3cccnc3)C(=O)N(C)CC(N)=O)CCOCC2)NC1=O` [SEQ ID NO: 273, MeCO-Pen(3)-N-T-7MeW-K(Ac)-Pen(3)-AEF-6OH2Nal-THP-K(PEG2PEG2gEC18OH)-N-3Pya-Sar-CONH2] (Ac-[Pen]NT[Trp(7-Me)]K(Ac)[Pen][AEF][2Nal(6-OH)][Thp]K([AEEA-AEEA-γGlu-C18 diacid])N[3Pal][Sar]-NH2; disulfide 1-6) was run?
**A.** < 0.01 nM

**Q.** What about the IC50 (IL-23R) of the same compound?
**A.** < 10 nM

**Q.** For `CC(=O)NCCCC[C@@H]1NC(=O)[C@H](Cc2c[nH]c3c(C)cccc23)NC(=O)[C@H]([C@@H](C)O)NC(=O)[C@H](CC(N)=O)NC(=O)[C@@H](NC(=O)[C@@H](CCCNC(=N)N)NC(C)=O)C(C)(C)SSC(C)(C)[C@@H](C(=O)N[C@@H](Cc2ccc(OCCN)cc2)C(=O)N[C@@H](Cc2ccc3cc(O)ccc3c2)C(=O)NC2(C(=O)N[C@@H](CCC(=O)O)C(=O)N[C@@H](CC(N)=O)C(=O)N[C@@H](Cc3cccnc3)C(=O)N(C)CC(=O)N[C@@H](CCCCNC(=O)COCCOCCNC(=O)COCCOCCNC(=O)CC[C@H](NC(=O)CCCCCCCCCCCCCCCCC(=O)O)C(=O)O)C(N)=O)CCOCC2)NC1=O` [SEQ ID NO: 282, MeCO-r-Pen(3)-N-T-7MeW-K(Ac)-Pen(3)-AEF-6OH2Nal-THP-E-N-3Pya-Sar-K(PEG2PEG2gEC18OH)—CONH2] (Ac-[dR][Pen]NT[Trp(7-Me)]K(Ac)[Pen][AEF][2Nal(6-OH)][Thp]EN[3Pal][Sar]K([AEEA-AEEA-γGlu-C18 diacid])-NH2; disulfide 2-7), which IC50 [1] is on record?
**A.** 0.1 to 1 nM

**Q.** What about the IC50 ([1]; listed as 13) of the same compound?
**A.** < 0.01 nM

**Q.** What about the IC50 (IL-23R) of the same compound?
**A.** 10 to 100 nM

**Q.** What about the IC50 (IL-23R; listed as 13) of the same compound?
**A.** < 10 nM

**Q.** How did the IC50 ([1]; listed as 5) turn out when `CC(=O)NCCCC[C@@H]1NC(=O)[C@H](Cc2c[nH]c3c(-c4cccc(NC(C)=O)c4)cccc23)NC(=O)[C@H]([C@@H](C)O)NC(=O)[C@H](CC(N)=O)NC(=O)[C@@H](NC(=O)[C@@H](CCCNC(=N)N)NC(C)=O)C(C)(C)SSC(C)(C)[C@@H](C(=O)N[C@@H](Cc2ccc(OCCN)cc2)C(=O)N[C@@H](Cc2ccc3cc(O)ccc3c2)C(=O)NC2(C(=O)N[C@@H](CCC(=O)O)C(=O)N[C@@H](CC(N)=O)C(=O)N[C@@H](Cc3cccnc3)C(=O)N(C)CC(N)=O)CCOCC2)NC1=O` [SEQ ID NO: 287, MeCO-r-Pen(3)-N-T-7(3NAcPh)W-K(Ac)-Pen(3)-AEF-6OH2Nal-THP-E-N-3Pya-Sar-CONH2] (Ac-[dR][Pen]NT[Trp(7-(3-AcNH-Ph))]K(Ac)[Pen][AEF][2Nal(6-OH)][Thp]EN[3Pal][Sar]-NH2; disulfide 2-7) was run?
**A.** < 0.01 nM

**Q.** `CC(=O)NCCCC[C@@H]1NC(=O)[C@H](Cc2c[nH]c3ccccc23)NC(=O)[C@H]([C@@H](C)O)NC(=O)[C@H](CC(N)=O)NC(=O)[C@@H](NC(=O)[C@@H](CCCC[N+](C)(C)C)NC(C)=O)CCSC[C@@](C)(C(=O)N[C@@H](Cc2ccc(OCCNC(=N)N)cc2)C(=O)N[C@@H](Cc2ccc3cc(O)ccc3c2)C(=O)NC2(C(=O)N[C@@H](CCC(=O)O)C(=O)N[C@@H](CC(N)=O)C(=O)N[C@@H](Cc3cccnc3)C(=O)N(C)CC(N)=O)CCOCC2)NC1=O` [compound 1] (Ac-[dLys(Me3)][Abu(4-yl)]NTWK(Ac)[αMeC]Y(Ethyl(2-guanidino))[2Nal(6-OH)][Thp]EN[3Pal][Sar]-NH2; thioether 2-7 (inferred); N-terminus and C-terminus assumed) was tested. Which IC50 (IL-23R) did it give?
**A.** < 10 nM

**Q.** Which IC50 (IL-23R) does the source give for `CC(=O)NCCCC[C@@H]1NC(=O)[C@H](Cc2c[nH]c3c(-c4cccc(NC(C)=O)c4)cccc23)NC(=O)[C@H]([C@@H](C)O)NC(=O)[C@H](CC(N)=O)NC(=O)[C@@H](NC(=O)[C@@H](CCCC[N+](C)(C)C)NC(C)=O)C(C)(C)SSC(C)(C)[C@@H](C(=O)N[C@@H](Cc2ccc(OCCCCC[N+](C)(C)C)cc2)C(=O)N[C@@H](Cc2ccc3cc(O)ccc3c2)C(=O)NC2(C(=O)N[C@@H](CCC(=O)O)C(=O)N[C@@H](CC(N)=O)C(=O)N[C@@H](Cc3cccnc3)C(=O)N(C)CC(N)=O)CCOCC2)NC1=O` [compound 37] (Ac-[dLys(Me3)][Pen]NT[Trp(7-(3-AcNH-Ph))]K(Ac)[Pen]Y(X18)[2Nal(6-OH)][Thp]EN[3Pal][Sar]-NH2; disulfide 2-7; N-terminus and C-terminus assumed) here?
**A.** < 10 nM

**Q.** Which IC50 (IL-23R) does the source give for `CC(=O)NCCCC[C@@H]1NC(=O)[C@H](Cc2c[nH]c3ccccc23)NC(=O)[C@H]([C@@H](C)O)NC(=O)[C@H](CC(N)=O)NC(=O)[C@@H](NC(=O)[C@@H](CCCC[N+](C)(C)C)NC(C)=O)CCSC[C@@](C)(C(=O)N[C@@H](Cc2ccc(OCCCCC[N+](C)(C)C)cc2)C(=O)N[C@@H](Cc2ccc3cc(O)ccc3c2)C(=O)NC2(C(=O)N[C@@H](CCC(=O)O)C(=O)N[C@@H](CC(N)=O)C(=O)N[C@@H](Cc3cccnc3)C(=O)N(C)CC(N)=O)CCOCC2)NC1=O` [compound 43] (Ac-[dLys(Me3)][Abu(4-yl)]NTWK(Ac)[αMeC]Y(X18)[2Nal(6-OH)][Thp]EN[3Pal][Sar]-NH2; thioether 2-7 (inferred); N-terminus and C-terminus assumed) here?
**A.** 10 to 100 nM

**Q.** With `CC(=O)NCCCC[C@@H]1NC(=O)[C@H](Cc2c[nH]c3c(C)cccc23)NC(=O)[C@H]([C@@H](C)O)NC(=O)[C@H](CC(N)=O)NC(=O)[C@@H](NC(=O)[C@@H](CCCC[N+](C)(C)C)NC(C)=O)C(C)(C)SSC(C)(C)[C@@H](C(=O)N[C@@H](Cc2ccc(OCCN)cc2)C(=O)N[C@@H](Cc2ccc3cc(O)ccc3c2)C(=O)NC2(C(=O)N[C@@H](CCC(=O)O)C(=O)N[C@@H](CC(N)=O)C(=O)N[C@@H](Cc3cncc(C)c3)C(=O)N(C)CC(N)=O)CCOCC2)NC1=O` [compound 50] (Ac-[dLys(Me3)][Pen]NT[Trp(7-Me)]K(Ac)[Pen][AEF][2Nal(6-OH)][Thp]EN[3Pal(5-Me)][Sar]-NH2; disulfide 2-7; N-terminus and C-terminus assumed) as the compound, how does the IC50 (IL-23R) read?
**A.** < 10 nM

**Q.** For `CC(=O)NCCCC[C@@H]1NC(=O)[C@H](Cc2c[nH]c3c(C)cccc23)NC(=O)[C@H]([C@@H](C)O)NC(=O)[C@H](CC(N)=O)NC(=O)[C@@H](NC(=O)[C@@H](CCCCNC(=O)CCC(=O)N[C@H](CC(=O)O)C[N+](C)(C)C)NC(C)=O)C(C)(C)SSC(C)(C)[C@@H](C(=O)N[C@@H](Cc2ccc(OCCOCCOCC[N+](C)(C)C)cc2)C(=O)N[C@@H](Cc2ccc3cc(O)ccc3c2)C(=O)NC2(C(=O)N[C@@H](CCC(=O)O)C(=O)N[C@@H](CC(N)=O)C(=O)N[C@@H](Cc3cccnc3)C(=O)N(C)CC(N)=O)CCOCC2)NC1=O` [compound 280] (Ac-[dK]([Suc-X20])[Pen]NT[Trp(7-Me)]K(Ac)[Pen]Y(CH2CH2OCH2CH2OCH2CH2NMe3+)[2Nal(6-OH)][Thp]EN[3Pal][Sar]-NH2; disulfide 2-7; N-terminus and C-terminus assumed), which IC50 (IL-23R) is on record?
**A.** 10 to 100 nM
